# Measured values from paper PMC10117376.
# The chains behind the UniProt entries cited, without tags or fusion partners.
# UniProt Q6W2J9: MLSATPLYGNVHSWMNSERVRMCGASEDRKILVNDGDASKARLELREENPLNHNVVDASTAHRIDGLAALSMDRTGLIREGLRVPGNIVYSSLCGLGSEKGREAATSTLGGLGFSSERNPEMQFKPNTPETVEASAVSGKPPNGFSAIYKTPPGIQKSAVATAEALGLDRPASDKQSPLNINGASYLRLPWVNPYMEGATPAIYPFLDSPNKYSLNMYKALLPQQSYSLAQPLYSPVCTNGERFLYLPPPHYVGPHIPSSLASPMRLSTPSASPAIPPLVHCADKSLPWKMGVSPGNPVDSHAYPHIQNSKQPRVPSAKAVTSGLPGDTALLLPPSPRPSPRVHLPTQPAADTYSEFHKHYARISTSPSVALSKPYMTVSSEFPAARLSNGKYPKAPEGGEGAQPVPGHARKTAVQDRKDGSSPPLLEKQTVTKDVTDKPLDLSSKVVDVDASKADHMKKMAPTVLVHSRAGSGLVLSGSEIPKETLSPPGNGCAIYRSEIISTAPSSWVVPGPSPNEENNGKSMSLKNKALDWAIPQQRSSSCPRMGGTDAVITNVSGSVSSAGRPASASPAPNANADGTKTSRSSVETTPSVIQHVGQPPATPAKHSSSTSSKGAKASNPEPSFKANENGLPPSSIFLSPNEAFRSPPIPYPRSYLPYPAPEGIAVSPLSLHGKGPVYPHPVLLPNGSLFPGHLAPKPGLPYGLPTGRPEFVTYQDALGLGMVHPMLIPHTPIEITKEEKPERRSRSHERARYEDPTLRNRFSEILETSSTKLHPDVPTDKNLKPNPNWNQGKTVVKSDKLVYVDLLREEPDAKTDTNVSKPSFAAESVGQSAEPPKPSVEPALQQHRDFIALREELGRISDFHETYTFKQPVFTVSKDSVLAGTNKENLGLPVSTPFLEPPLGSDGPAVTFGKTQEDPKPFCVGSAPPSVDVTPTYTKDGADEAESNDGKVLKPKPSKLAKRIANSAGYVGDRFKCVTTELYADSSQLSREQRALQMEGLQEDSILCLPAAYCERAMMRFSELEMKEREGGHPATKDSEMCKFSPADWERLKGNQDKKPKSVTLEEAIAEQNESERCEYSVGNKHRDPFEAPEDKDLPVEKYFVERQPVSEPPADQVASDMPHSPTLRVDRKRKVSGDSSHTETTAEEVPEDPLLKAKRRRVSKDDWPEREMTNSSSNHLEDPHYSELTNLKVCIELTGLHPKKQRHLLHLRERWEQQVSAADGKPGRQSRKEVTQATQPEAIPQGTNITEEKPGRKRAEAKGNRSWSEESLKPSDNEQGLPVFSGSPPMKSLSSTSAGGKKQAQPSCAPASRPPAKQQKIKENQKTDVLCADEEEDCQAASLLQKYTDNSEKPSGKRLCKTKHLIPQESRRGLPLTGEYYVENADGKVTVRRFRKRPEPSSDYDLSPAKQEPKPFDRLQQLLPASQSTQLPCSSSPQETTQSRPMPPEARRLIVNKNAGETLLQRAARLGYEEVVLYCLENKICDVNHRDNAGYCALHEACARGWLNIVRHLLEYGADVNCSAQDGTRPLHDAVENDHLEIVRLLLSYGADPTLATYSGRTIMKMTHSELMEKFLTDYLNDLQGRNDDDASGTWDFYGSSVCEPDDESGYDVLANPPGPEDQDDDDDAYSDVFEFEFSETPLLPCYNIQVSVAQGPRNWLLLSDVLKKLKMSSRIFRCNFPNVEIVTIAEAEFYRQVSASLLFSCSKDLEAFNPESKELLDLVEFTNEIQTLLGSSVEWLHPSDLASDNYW
# UniProt Q8WXI9: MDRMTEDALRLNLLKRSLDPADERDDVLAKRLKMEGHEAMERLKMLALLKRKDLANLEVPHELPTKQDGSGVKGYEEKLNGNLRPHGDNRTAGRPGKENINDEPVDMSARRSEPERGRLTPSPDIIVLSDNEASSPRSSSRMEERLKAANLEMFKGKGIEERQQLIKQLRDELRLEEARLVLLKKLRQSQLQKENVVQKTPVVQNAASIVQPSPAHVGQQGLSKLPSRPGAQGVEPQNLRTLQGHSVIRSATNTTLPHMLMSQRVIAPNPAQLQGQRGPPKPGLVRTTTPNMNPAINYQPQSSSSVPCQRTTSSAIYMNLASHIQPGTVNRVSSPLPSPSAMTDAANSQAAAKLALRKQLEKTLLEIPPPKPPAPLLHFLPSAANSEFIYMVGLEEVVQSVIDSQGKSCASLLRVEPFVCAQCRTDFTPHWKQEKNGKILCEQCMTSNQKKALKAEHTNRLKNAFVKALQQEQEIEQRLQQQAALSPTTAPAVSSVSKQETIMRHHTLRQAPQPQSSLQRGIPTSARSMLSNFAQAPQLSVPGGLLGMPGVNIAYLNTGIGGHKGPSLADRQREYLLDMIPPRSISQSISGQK
# Results are given in words; binding and its absence hold for the method and conditions named. In cells and extracts the contact can be indirect. Some results given as binding are weak or reduced against the parent protein; the word gives no strength. Where a sequence is shown, tags or fusion partners need not be part of it.
# T1: YFP-TBR1 p.S351* (human) (UniProt Q16650)
# T1 sequence: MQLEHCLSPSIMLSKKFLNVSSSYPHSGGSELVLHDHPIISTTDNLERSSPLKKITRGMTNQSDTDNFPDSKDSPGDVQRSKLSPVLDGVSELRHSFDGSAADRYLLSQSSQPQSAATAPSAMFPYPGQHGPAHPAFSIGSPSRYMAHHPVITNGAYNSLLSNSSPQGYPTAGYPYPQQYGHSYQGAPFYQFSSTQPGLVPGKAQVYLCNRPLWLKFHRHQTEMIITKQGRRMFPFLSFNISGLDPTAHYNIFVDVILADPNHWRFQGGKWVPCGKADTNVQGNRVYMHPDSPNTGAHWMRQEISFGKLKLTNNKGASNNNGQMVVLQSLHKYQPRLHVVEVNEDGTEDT
# T2: YFP-TBR1 (human) (UniProt Q16650)
# T2 sequence: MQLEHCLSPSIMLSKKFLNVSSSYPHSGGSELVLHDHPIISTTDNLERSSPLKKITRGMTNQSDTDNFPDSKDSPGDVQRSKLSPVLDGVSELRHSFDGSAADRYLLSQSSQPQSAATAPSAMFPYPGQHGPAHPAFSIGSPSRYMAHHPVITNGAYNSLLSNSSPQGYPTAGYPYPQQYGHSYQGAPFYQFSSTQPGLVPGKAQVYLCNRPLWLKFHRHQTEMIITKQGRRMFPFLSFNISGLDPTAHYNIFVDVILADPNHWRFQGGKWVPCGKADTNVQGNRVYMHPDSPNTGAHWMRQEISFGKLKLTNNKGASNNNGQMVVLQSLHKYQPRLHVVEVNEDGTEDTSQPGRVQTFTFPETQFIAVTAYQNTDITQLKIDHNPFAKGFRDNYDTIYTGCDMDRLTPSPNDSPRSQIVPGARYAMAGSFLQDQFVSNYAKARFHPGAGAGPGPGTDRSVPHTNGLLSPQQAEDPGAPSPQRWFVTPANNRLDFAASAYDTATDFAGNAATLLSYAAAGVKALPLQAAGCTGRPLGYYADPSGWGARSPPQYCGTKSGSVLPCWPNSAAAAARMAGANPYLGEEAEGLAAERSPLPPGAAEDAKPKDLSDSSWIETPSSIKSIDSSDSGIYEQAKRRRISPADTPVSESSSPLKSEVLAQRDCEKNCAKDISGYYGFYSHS
# T3: YFP-TBR1 p.K389E (human) (UniProt Q16650)
# T3 sequence: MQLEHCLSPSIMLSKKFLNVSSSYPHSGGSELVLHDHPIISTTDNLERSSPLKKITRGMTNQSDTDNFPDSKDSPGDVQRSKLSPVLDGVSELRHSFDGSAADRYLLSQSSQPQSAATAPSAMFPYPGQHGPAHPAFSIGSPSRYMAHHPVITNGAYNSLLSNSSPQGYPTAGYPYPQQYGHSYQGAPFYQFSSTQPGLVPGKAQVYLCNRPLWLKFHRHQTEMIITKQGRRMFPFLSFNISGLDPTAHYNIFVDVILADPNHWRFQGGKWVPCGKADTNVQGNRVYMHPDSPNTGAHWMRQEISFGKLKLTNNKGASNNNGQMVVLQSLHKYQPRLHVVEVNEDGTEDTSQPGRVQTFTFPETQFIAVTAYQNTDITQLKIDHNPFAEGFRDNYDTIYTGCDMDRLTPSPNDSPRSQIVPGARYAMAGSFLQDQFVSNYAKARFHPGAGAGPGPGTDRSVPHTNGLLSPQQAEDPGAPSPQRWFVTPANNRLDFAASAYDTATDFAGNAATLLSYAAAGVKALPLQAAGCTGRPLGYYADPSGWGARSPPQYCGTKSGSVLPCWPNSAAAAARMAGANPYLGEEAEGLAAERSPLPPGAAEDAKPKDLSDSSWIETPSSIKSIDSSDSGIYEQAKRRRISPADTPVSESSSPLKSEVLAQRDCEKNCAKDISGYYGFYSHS
# T4: YFP-TBR1 p.N374H (human) (UniProt Q16650)
# T4 sequence: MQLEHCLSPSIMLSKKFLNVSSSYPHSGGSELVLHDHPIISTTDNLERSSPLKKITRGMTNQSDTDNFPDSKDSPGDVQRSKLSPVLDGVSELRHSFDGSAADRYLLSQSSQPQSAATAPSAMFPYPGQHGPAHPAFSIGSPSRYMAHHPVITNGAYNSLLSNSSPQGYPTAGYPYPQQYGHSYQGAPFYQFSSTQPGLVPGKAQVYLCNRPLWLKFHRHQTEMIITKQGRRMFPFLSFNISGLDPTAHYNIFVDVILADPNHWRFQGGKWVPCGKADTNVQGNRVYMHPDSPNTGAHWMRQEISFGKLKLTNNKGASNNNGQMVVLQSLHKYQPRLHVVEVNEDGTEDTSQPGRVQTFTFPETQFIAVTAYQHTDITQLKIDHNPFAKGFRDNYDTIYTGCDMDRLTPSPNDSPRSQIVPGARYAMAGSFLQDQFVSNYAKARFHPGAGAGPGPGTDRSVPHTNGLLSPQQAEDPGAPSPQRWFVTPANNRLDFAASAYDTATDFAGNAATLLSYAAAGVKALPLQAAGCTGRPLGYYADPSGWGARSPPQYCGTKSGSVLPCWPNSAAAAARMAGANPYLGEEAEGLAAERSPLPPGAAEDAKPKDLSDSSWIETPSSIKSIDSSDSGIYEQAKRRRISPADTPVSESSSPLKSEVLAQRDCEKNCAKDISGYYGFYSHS
# Experiments:
# Assay in all cases: FRET or BRET; BRET in live HEK293 cells transfected with pairs of N-terminal Rluc and YFP fusions, 96-well plates; EnduRen substrate 48 h after transfection; Rluc-NLS and YFP-NLS as controls
# YFP-TBR1 p.S351* (human) = target: T1, YFP-TBR1 p.S351* (human)
# YFP-TBR1 (human) = target: T2, YFP-TBR1 (human)
# YFP-TBR1 p.K389E (human) = target: T3, YFP-TBR1 p.K389E (human)
# YFP-TBR1 p.N374H (human) = target: T4, YFP-TBR1 p.N374H (human)
binding (YFP-TBR1 p.S351* (human)),binding (YFP-TBR1 (human)),binding (YFP-TBR1 p.K389E (human)),binding (YFP-TBR1 p.N374H (human)),Molecule
no binding,binds,binds,binds,Rluc-BCOR (from UniProt Q6W2J9 1-1755)
no binding,binds,binds,binds,Rluc-GATAD2B (from UniProt Q8WXI9 1-593)
no binding,binds,no binding,binds,"Rluc-NR2F1 (protein, UniProt P10589 1-423) MAMVVSSWRDPQDDVAGGNPGGPNPAAQAARGGGGGAGEQQQQAGSGAPHTPQTPGQPGAPATPGTAGDKGQGPPGSGQSQQHIECVVCGDKSSGKHYGQFTCEGCKSFFKRSVRRNLTYTCRANRNCPIDQHHRNQCQYCRLKKCLKVGMRREAVQRGRMPPTQPNPGQYALTNGDPLNGHCYLSGYISLLLRAEPYPTSRYGSQCMQPNNIMGIENICELAARLLFSAVEWARNIPFFPDLQITDQVSLLRLTWSELFVLNAAQCSMPLHVAPLLAAAGLHASPMSADRVVAFMDHIRIFQEQVEKLKALHVDSAEYSCLKAIVLFTSDACGLSDAAHIESLQEKSQCALEEYVRSQYPNQPSRFGKLLLRLPSLRTVSSSVIEQLFFVRLVGKTPIETLIRDMLLSGSSFNWPYMSIQCS"
no binding,binds,no binding,binds,"Rluc-NR2F2 (protein, UniProt P24468 1-414) MAMVVSTWRDPQDEVPGSQGSQASQAPPVPGPPPGAPHTPQTPGQGGPASTPAQTAAGGQGGPGGPGSDKQQQQQHIECVVCGDKSSGKHYGQFTCEGCKSFFKRSVRRNLSYTCRANRNCPIDQHHRNQCQYCRLKKCLKVGMRREAVQRGRMPPTQPTHGQFALTNGDPLNCHSYLSGYISLLLRAEPYPTSRFGSQCMQPNNIMGIENICELAARMLFSAVEWARNIPFFPDLQITDQVALLRLTWSELFVLNAAQCSMPLHVAPLLAAAGLHASPMSADRVVAFMDHIRIFQEQVEKLKALHVDSAEYSCLKAIVLFTSDACGLSDVAHVESLQEKSQCALEEYVRSQYPNQPTRFGKLLLRLPSLRTVSSSVIEQLFFVRLVGKTPIETLIRDMLLSGSSFNWPYMAIQ"
no binding,binds,no binding,no binding,"Rluc-ADNP (protein, UniProt Q9H2P0 1-1102) MFQLPVNNLGSLRKARKTVKKILSDIGLEYCKEHIEDFKQFEPNDFYLKNTTWEDVGLWDPSLTKNQDYRTKPFCCSACPFSSKFFSAYKSHFRNVHSEDFENRILLNCPYCTFNADKKTLETHIKIFHAPNASAPSSSLSTFKDKNKNDGLKPKQADSVEQAVYYCKKCTYRDPLYEIVRKHIYREHFQHVAAPYIAKAGEKSLNGAVPLGSNAREESSIHCKRCLFMPKSYEALVQHVIEDHERIGYQVTAMIGHTNVVVPRSKPLMLIAPKPQDKKSMGLPPRIGSLASGNVRSLPSQQMVNRLSIPKPNLNSTGVNMMSSVHLQQNNYGVKSVGQGYSVGQSMRLGLGGNAPVSIPQQSQSVKQLLPSGNGRSYGLGSEQRSQAPARYSLQSANASSLSSGQLKSPSLSQSQASRVLGQSSSKPAAAATGPPPGNTSSTQKWKICTICNELFPENVYSVHFEKEHKAEKVPAVANYIMKIHNFTSKCLYCNRYLPTDTLLNHMLIHGLSCPYCRSTFNDVEKMAAHMRMVHIDEEMGPKTDSTLSFDLTLQQGSHTNIHLLVTTYNLRDAPAESVAYHAQNNPPVPPKPQPKVQEKADIPVKSSPQAAVPYKKDVGKTLCPLCFSILKGPISDALAHHLRERHQVIQTVHPVEKKLTYKCIHCLGVYTSNMTASTITLHLVHCRGVGKTQNGQDKTNAPSRLNQSPSLAPVKRTYEQMEFPLLKKRKLDDDSDSPSFFEEKPEEPVVLALDPKGHEDDSYEARKSFLTKYFNKQPYPTRREIEKLAASLWLWKSDIASHFSNKRKKCVRDCEKYKPGVLLGFNMKELNKVKHEMDFDAEWLFENHDEKDSRVNASKTADKKLNLGKEDDSSSDSFENLEEESNESGSPFDPVFEVEPKISNDNPEEHVLKVIPEDASESEEKLDQKEDGSKYETIHLTEEPTKLMHNASDSEVDQDDVVEWKDGASPSESGPGSQQVSDFEDNTCEMKPGTWSDESSQSEDARSSKPAAKKKATMQGDREQLKWKNSSYGKVEGFWSKDQSQWKNASENDERLSNPQIEWQNSTIDSEDGEQFDNMTDGVAEPMHGSLAGVKLSSQQA"
